# Assay results from article PMC6919601, “Identification of Plasmodium dipeptidyl aminopeptidase allosteric inhibitors by high throughput screening” (PLoS ONE, 2019).
# Several values for one entry are separate records, joined by “and”; a condition that tells them apart may be missing. Identical values can stand only once. Among all 110,000 compounds or so, about 230 (0.21%) showed an effect of 50% or more. This is one part of the list.
# Target: DPAP1 (Plasmodium falciparum, UniProt Q8IIJ9)
# Assay: primary screen, percent inhibition; read by cleavage of a fluorogenic dipeptide substrate; higher = more effect of the substance
# Parameters: species or system P. falciparum D10 trophozoite lysates; single well
# 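Also: 30 min substrate incubation versus DMSO and 10 µM JCP410 controls.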
# Chain of DPAP1 (Q8IIJ9 whole entry, looked up): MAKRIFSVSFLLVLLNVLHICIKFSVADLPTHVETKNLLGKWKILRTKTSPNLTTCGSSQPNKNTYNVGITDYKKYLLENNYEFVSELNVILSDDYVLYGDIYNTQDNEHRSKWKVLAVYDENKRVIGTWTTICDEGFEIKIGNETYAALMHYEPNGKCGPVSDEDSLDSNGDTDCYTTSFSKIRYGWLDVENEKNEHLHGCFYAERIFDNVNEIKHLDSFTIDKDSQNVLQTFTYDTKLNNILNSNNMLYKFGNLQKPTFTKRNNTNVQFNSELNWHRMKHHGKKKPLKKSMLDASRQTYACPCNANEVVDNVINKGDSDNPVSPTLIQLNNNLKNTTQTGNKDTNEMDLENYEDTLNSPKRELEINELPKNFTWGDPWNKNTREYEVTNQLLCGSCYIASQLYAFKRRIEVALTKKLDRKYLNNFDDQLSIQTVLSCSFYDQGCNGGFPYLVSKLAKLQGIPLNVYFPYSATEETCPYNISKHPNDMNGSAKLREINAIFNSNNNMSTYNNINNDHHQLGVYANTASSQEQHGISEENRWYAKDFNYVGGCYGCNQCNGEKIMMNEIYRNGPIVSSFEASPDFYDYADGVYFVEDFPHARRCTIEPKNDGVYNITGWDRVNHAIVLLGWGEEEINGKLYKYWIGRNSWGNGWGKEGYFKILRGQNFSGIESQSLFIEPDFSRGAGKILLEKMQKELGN
row,SMILES,% Inhibition @ 10 uM
1,COCCn1c(CN2CCN(C)CC2)nc2c1c(=O)n(C)c(=O)n2C,-1.43%
2,COc1ccc(CN2CCc3cc(OC)c(OC)cc3C2)cc1C,-5.57%
3,COC(=O)c1[nH]c2ccccc2c1/C=C1\C(=O)NC(=S)N(c2ccccc2C)C1=O,2.6%
4,O=S(=O)(Nn1cnnc1)c1ccccc1Cl,-2.26%
5,N#Cc1c(NCc2ccccc2)ccnc1SCc1ccc(Cl)cc1,2.13%
6,CCN(CC)c1ccc(Nc2nc(-c3c(C)nc4cc(C)ccn34)cs2)cc1,5.8%
7,CC1=C(C(=O)Nc2ccc(Br)cn2)C(c2ccc(Cl)cc2)C2=C(O)CCCC2=N1 (centres unmarked),-9.79%
8,CC(C)C[C@H](NC(=O)OCc1ccccc1)C(=O)N[C@@H](CCc1ccccc1)C(=O)CN(Cc1ccccc1)C(=O)OC(C)(C)C,-4.82%
9,CCN(C(=O)c1cccc(Cl)c1)c1ccccc1C,-1.54%
10,O=C(/C=C/c1ccc(Cl)cc1)Nc1ccc(Cl)cc1,-0.414%
11,Cc1ccc(-c2cn3c(n2)sc2cc(C(=O)N4CCC5(CC4)OCCO5)ccc23)cc1,21.7%
12,COc1ccc(/C=C2\SC(=O)N(CC(=O)Nc3nccs3)C2=O)cc1OC,-2.27%
13,CC(NC(=O)CCNS(=O)(=O)c1cccc2nonc12)c1ccccc1 (centres unmarked),-2.9%
14,O=C(CN1C(=O)CSc2ncccc21)N1CCCCCC1,-0.637%
15,CCO/C(O)=C1\C(C)=NC2=C(C(=O)CC(c3ccccc3)C2)C1c1cc(OC)c(OC)c(OC)c1 (centres unmarked),-1.6%
16,COc1ccc(/C=N/n2c(S)nnc2-c2ccccc2Cl)c(OC)c1,-4.91%
17,C=CCOc1ccccc1/C=C1\N=C(c2ccccc2)OC1=O,23.7%
18,C=C(C)Cn1c(SCC(=O)O)nc2c1c(=O)n(C)c(=O)n2C,-2.78%
19,CCOC(=O)c1c(C)c(C(=O)NC2CCCCCC2)c(C)n1CC,-7.18%
20,Cc1cccn2c(=O)c3cc(C(=O)NCCC(c4ccccc4)c4ccccc4)n(C)c3nc12,4.19%
21,CNC(=O)Cn1c(-c2cccs2)cc2ccccc21,0.95%
22,CCCCc1ccc(S(=O)(=O)Nc2ccc(C(F)(F)F)cc2)cc1,2.78%
23,COc1ccc(N2CCN(C(=O)CN(CCc3ccccc3)S(C)(=O)=O)CC2)cc1,-5.21%
24,CNc1nsc(C(=O)c2ccc(C)cc2)c1N,3.39%
25,CC12COc3ccccc3C1c1sc(O)nc1SC2 (centres unmarked),-0.736%

row,SMILES,% Inhibition @ 10 uM
1,CCOc1cccc(C(=O)Nc2ccc(N3CCN(C)CC3)cc2)c1,4%
2,CC(=O)c1cccc(Nc2ncnc3ccccc23)c1,-4.28% and -1.42%
3,O=C(CCc1ccccc1)ONC(=O)c1ccc(Cl)cc1,-0.386%
4,CC1CN(Cc2ccc(Cl)cc2Cl)CC(C)O1 (centres unmarked),-4.3%
5,CCOc1ccc(CNCc2c(C(=O)O)c(C)n(Cc3ccc(C)cc3)c2C)cc1OC,-5.49%
6,Cc1cc2c(c(O)n1)C(c1cc3c(cc1Br)OCO3)C(C#N)=C(N)O2 (centres unmarked),3.93%
7,COc1ccc(C(=O)NCCSCc2ccccc2)cc1OC,2.7%
8,CCN(CC)CCNC(=O)c1c(C)oc2cc3c(C(=O)NCCN(CC)CC)c(C)oc3cc12,-1.68%
9,COC(=O)C1CCC(c2ccccc2)CC1 (centres unmarked),2.6%
10,Cc1ccc2nc(Nc3nc(O)c4c(n3)CCCC4)nc(C)c2c1,-0.545%
11,CCOc1cccc2c1Oc1nc(-c3cccc(O)c3)nc(S)c1C2,22%
12,CN1CCN(C(=O)c2ccc(CN3CCOCC3)cc2)CC1,-10%
13,Cc1ccc(NC(=O)COc2ccc([N+](=O)[O-])cc2C)c(Br)c1,-2.62%
14,COc1ccc(NC(=O)CN2C(=O)S/C(=C/c3ccc(OC)c(O)c3)C2=O)cc1,3.56%
15,COc1ccc(/C=C2\SC(=O)N(c3ccc(O)cc3)C2=O)cc1OC,7.09%
16,O=C(c1ccccc1)N1CCN(c2ncnc3sc4c(c23)CCCC4)CC1,2.16%
17,Cc1n[nH]c(C)c1Cc1ccc(C(=O)O)cc1,2.1%
18,Cc1cccc(Cn2c(N3CCc4ccccc4C3)nc3c2c(=O)[nH]c(=O)n3C)c1,0.758%
19,COc1ccc(-c2nc(SCC(=O)Nc3cccc(F)c3)nc(O)c2C#N)cc1,3.19%
20,CC1(C)CC(=O)C2=C(C1)OC1=C(C(=O)CC(C)(C)C1)C2c1cccc(OCC(=O)Nc2ccccc2)c1,-4.97%
21,O=C(Nc1ccc2c(c1)CCC2)c1cccc(OC(F)F)c1,-1.61%
22,CCCN1CC=C2C(C#N)=C(N)C(C#N)(C#N)C(c3ccccc3Cl)C2C1 (centres unmarked),4.95%
23,CCN(Cc1ccccc1)Cc1ccc(-c2ccc(Cl)cc2)o1,-7.18%
24,CCNC(=O)c1cc(-c2ccc(Cl)cc2)nc2ccccc12,-8.64%
25,OCCN1CCN(CCCc2c3c(cc4c2CCC4)CCC3)CC1,1.19%

row,SMILES,% Inhibition @ 10 uM
1,O=C(Nc1nc(-c2ccc(F)cc2)cs1)C1CCCO1 (centres unmarked),-8.49%
2,Cn1ncc2c(NCc3ccncc3)ncnc21,0.0904%
3,CN(C)c1ccc(CN2CCCC(O)C2)cc1 (centres unmarked),-5.57%
4,COc1ccc(C2N=C(c3cccc(OC)c3)Nc3ccc4ccccc4c32)cc1 (centres unmarked),8.53%
5,COc1cccc(C2CC3=Nc4ccccc4NC(c4ccc5c(c4)OCO5)C3=C(O)C2)c1 (centres unmarked),1.35%
6,C(#Cc1ccccc1)/C=N/n1cnnc1,-1.52%
7,CCn1c2ccccc2c2nnc(SCC(=O)Nc3cc(C)on3)nc21,5.55%
8,C#CCOc1ccc(C2C(C#N)=C(N)Oc3cc4c(cc32)OCO4)cc1OC (centres unmarked),0.851%
9,CN(C)CCNC(=O)c1ccc(Cn2c(SCc3ccccc3F)nc3cccnc32)cc1,-0.0871%
10,Oc1cc(Nc2ccccc2Cl)nc(O)n1,-0.711%
11,NS(=O)(=O)c1ccc(NC2=NC(=O)C(CC(=O)Nc3ccccc3)S2)cc1 (centres unmarked),0.528%
12,CC(C)N(Cc1ccccc1)C(=O)C1CCN(C(=O)c2cnn(-c3ccccc3)c2-n2cccc2)CC1,0.137%
13,Oc1nc2ccc(C34CC5CC(CC(C5)C3)C4)cc2nc1O,-2.99%
14,COCCNC(=O)/C(C#N)=C/c1c(Oc2ccc(OC)cc2)nc2ccccn2c1=O,1.19%
15,COc1cccc(C(=O)Nc2ccc3c(c2)Cc2ccccc2-3)c1OC,2.27%
16,COc1cc(C2C3=C(O)CC(C)(C)CC3=NC(C)=C2C(=O)Nc2ccccc2C)ccc1O (centres unmarked),3.96%
17,CC(=O)NC1=NN(C(C)=O)C(C)(CS(=O)(=O)c2ccc3ccccc3c2)S1 (centres unmarked),-4.75%
18,Cn1c2ccccc2c2c(C(=O)N3CCN(C(=O)c4ccco4)CC3)cn(C3CCCCC3)c(=O)c21,0.163%
19,COc1ccc2[nH]c3c(=O)n(CCCCC(=O)N4CC(C)CC(C)C4)c(=S)[nH]c3c2c1 (centres unmarked),-2.19%
20,CC(C)(C)n1nc2c(c1NC(=O)c1cccc(Br)c1)CS(=O)(=O)C2,-1.61%
21,COc1cccc(C2CC(=O)N=C(NC(=O)c3ccc(OC(F)F)cc3)N2)c1OC (centres unmarked),-4.46%
22,COc1ccc(C)cc1NCc1cccc2ccccc12,7.24%
23,O=C1c2ccccc2C(=O)c2c1cccc2S(=O)(=O)N1CCOCC1,3.04%
24,O=C(O)COc1ccc(C2C3CC4CC(C3)CC2C4)cc1 (centres unmarked),0.00784%
25,COc1ccc(-n2nc3c(c2NC(=O)c2ccccc2C(F)(F)F)CS(=O)C3)cc1 (centres unmarked),2.84%

row,SMILES,% Inhibition @ 10 uM
1,Cc1ccc(-c2cc3c4c(C)n(C)c(C)c4c(C)nn3c2)o1,2.21%
2,COCCNC(=O)c1cc2c(O)nc3ccc(C)cc3c2s1,-5.17%
3,CCOc1ccc(NCC(=O)Nc2ccc(C)cc2C)cc1,-7.83%
4,COc1cc(OC)c(C2CC(=O)Oc3c2c(O)nc2ccccc32)cc1OC (centres unmarked),-1.05%
5,N#Cc1c(-c2ccc([N+](=O)[O-])cc2)cc(-c2ccccc2)nc1N,-2.21%
6,CC(C)c1nnc(NC(=O)CCCOc2ccc(Cl)cc2)s1,-4.93%
7,CCOC(=O)C1=CN(C(C)C)C=C(C(=O)OCC)C1c1ccc(OC)c(O)c1,0.219%
8,CC12CCC(=O)C=C1CCC1C2CCC2(C)C(C(=O)O)CCC12 (centres unmarked),-1.5%
9,Cc1ccc(Cn2c(C)nc3ccccc32)cc1,-2.2%
10,C#CC(C)(C)N1CC(C)C(O)(c2ccccc2)CC1C (centres unmarked),-0.127%
11,O=C(O)C1CCN(Cc2cnn(-c3ccccc3)c2-n2cccc2)CC1,-3.78%
12,CCC1=C(C#N)C(c2cccnc2)C(C(=O)OC)=C(N)O1 (centres unmarked),1.76%
13,CC(=O)OC1CC2CCC(C1)N2C(=O)N1c2ccccc2C=Cc2ccccc21 (centres unmarked),3.32%
14,Nc1c(C(=O)c2ccc(Br)cc2)sc2nc(-c3cccs3)cc(C(F)(F)F)c12,-3.72%
15,CCC1CCCCN1CCCNC(=O)Cn1ncc2c3ccccc3n(C)c2c1=O (centres unmarked),-0.23%
16,Cc1oc2ncnc(N3CCC(C(N)=O)CC3)c2c1C(=O)O,-0.495%
17,COc1ccc(CN2CCC(N3CCCCC3)CC2)c(OC)c1,-1.78%
18,COCCn1c(CCC(=O)NCCc2ccc(Cl)cc2)nc2cccnc21,2.57%
19,CCc1ccc(C2c3c(-c4ccccc4O)n[nH]c3C(=O)N2CC2CCCO2)cc1 (centres unmarked),-1.35%
20,CCc1cccc(C)c1NC(=O)CN(C)S(=O)(=O)c1ccc(C)cc1,-5.67%
21,Cc1ccc(CCNC(=O)c2nnc(Cc3ccc(C)cc3)o2)cc1,-2.23%
22,c1coc(CNc2nn3nnnc3c3ccccc23)c1,-0.975%
23,COc1ccc(Cl)cc1NC(=O)C1C2CCC(C2)C1C(=O)O (centres unmarked),3.32%
